In patent publication US20090325873A1, “HUMAN GLP-1 MIMETIBODIES, COMPOSITIONS, METHODS AND USES” (CENTOCOR, INC., priority 2006, published 2009):

Assays:
Assay type in all cases: in vivo
[1] = Pharmacokinetics in rats, single sc or iv dose; settings: SD rats, 3 mg/kg, mean
Method: Pharmacokinetics in rats: Sprague-Dawley-derived rats were treated with a single subcutaneous or intravenous dose of GLP-1 MMB of SEQ ID NO 4 (3.0 mg/kg, lot #8833173) (1). Approximately 300 μl of blood were collected at various times following dosing in sodium citrate (3.8%) containing protease inhibitors (Roche Complete EDTA free, Roche Applied Science, Indianapolis, Ind.) and DPP4 inhibitors (Linco, St. Charles, Mo.). Plasma was isolated and stored at −80° until samples could be analyzed. The concentration of intact GLP-1 MMB of SEQ ID NO 4 was measured using a mesoscale discovery (MSD) technology. Briefly, plasma samples were serially diluted by BioMek Fx for a total of 4 dilutions, neat, 1:8, 1:64 and 1:512. Identical standard curves in neat plasma were included on each plate. GLP-1MMB of SEQ ID NO 4 was captured on MSD plates by biotinylated monoclonal antibody (CNTO1626) designed to detect intact N-terminus of GLP-1MMB of SEQ ID NO 4. Ruthenium labeled monoclonal antibody recognizing linker region on GLP-1MMB of SEQ ID NO 4 (CNTO712) were added for detection and the luminescence responses were determined using the MSD sector imager 6000 reader. GLP-1MMB of SEQ ID NO 4 level was calculated using sigmoidal dose-response curve (GraphPad PRISM).
Data analysis: Non-compartmental analysis (NCA) was employed to calculate the pharmacokinetic parameters of GLP-1MMB of SEQ ID NO 4 (WinNonlin, Version 5.1, Pharsight Corporation, Mountain View, Calif.). The maximum serum concentration, Cmax and the time to reach Cmax (Tmax), were obtained from inspection of the serum concentration vs. time profiles. The area under the concentration curve (AUC) from time 0 to the last time point with quantifiable levels of GLP-1MMB of SEQ ID NO 4 was calculated (AUC (0-7d) for rat, AUC (0-21d) for monkey), as well as the AUC from time 0 to infinity. The AUC values were obtained by linear trapezoidal integration. The terminal rate constant (λz) was determined by least-squares regression analysis of the log-linear portion of the terminal phase. The terminal half-life, t½, was calculated from the ratio of 0.693 and λz.

[2] = system: diet-induced obese (DIO) C57B1/6J mice; assay: ipGTT in diet-induced obese (DIO) mice, acute pharmacodynamic study; settings: for ED50 (AUC of ipGTT fit to a hyperbola): DIO mice, i.v.
Method: Materials/Methods: D-glucose was purchased from Sigma. The studies described below used diet-induced obese (DIO) C57B1/6J mice that were started on a diet containing 60.9% fat (Purina TestDiets 58126) at 4 weeks of age. All animals achieved three consecutive weeks of diabetic fasting blood glucose values (>120 mg/dL) prior to their inclusion in the study. ipGTT: Thirty-five mice were fasted overnight (16 hr) and were randomized into 7 groups (n=5) based upon their fasting glucose concentrations. Ten minutes prior to the glucose tolerance test, mice were dosed i.v. with PBS or GLP1 MMB of SEQ ID NO 4 (0.003, 0.01, 0.03, 0.1, 0.3, and 1.0 mg/kg). Five minutes prior to the glucose tolerance test, a fasting glucose measurement was made from tail vein blood. At T=0 min, mice were dosed i.p. with D-glucose (1.0 mg/g). Blood glucose levels were measured at 15, 30, 60, 90, 120, 150 and 180 min using tail vein blood.

wild type mice = assay: Glucose tolerance test (ipGTT) in wild type mice; settings: single iv GLP-1 MMB 1 mg/kg, exendin-4 0.07 mg/kg
DIO mice = assay: Correlation of pharmacodynamic activity (ipGTT) with plasma levels in DIO mice; settings: single iv 1 mg/kg
Method: Materials/Methods. Animals/Treatments: C57B1/6J mice were started at 4 weeks of age on a diet containing 60.9% fat (Purina TestDiets 58126). At the time of the study start, all of the animals had achieved three consecutive weeks of diabetic fasting blood glucose values (>120 mg/dL). DIO mice were randomized into treatment groups based on fasting blood glucose and were dosed (iv) with GLP-1 MMB of SEQ ID NO 4 (1 mg/kg, lot #8833173)) or PBS. At various time post-dosing, glucose tolerance tests were performed and blood samples were collected to measure GLP-1 MMB of SEQ ID NO 4 plasma levels as described below. Glucose tolerance test (ipGTT): Mice were fasted overnight (16 hr) before the test. In the morning a fasting glucose was measured via tail snips using a hand-held glucometer (LifeScan). […] Blood glucose was measured after 15, 30, 60, 90 and 120 min using tail vein blood. […] The concentration of intact GLP-1 MMB of SEQ ID NO 4 was measured using a mesoscale discovery (MSD) technology. […] A ruthenium labeled monoclonal antibody recognizing the linker region of the mimetibody (CNTO712) was added for detection, and the luminescence responses were determined using the MSD sector imager 6000 reader. GLP-1 MMB of SEQ ID NO 4 level was calculated using sigmoidal dose-response curve (GraphPad PRISM). […] The area under the curve (AUC) was calculated for each individual ipGTT curve (FIG. 26). […]

B1: GLP-1 MMB of SEQ ID NO 4: GLP-1 mimetibody of SEQ ID NO 4 (protein, listed as Homo sapiens)
chain: HSEGTFTSDVSSYLEGQAAKEFIEWLVKGRGGGSGGGSGTLVTNSS[human IgG4 Fc with S228P F234A L235A (EU numbers) omitted]
[1]; iv
  AUC (0-7 d): 23.61 µg·days/mL
  AUCinf: 23.86 µg·days/mL
  Cl: 5.2458 mL/h/kg
  Cmax: 53910 ng/mL
  Vss: 0.11007 L/kg
  t½: 36 h and 35.5 h
[1]; sc
  AUC (0-7 d): 5.04 µg·days/mL
  AUCinf: 5.20 µg·days/mL
  Cmax: 2290 ng/mL
  Tmax: 19.9 h
  t½: 40.8 h and 41.5 h
[2]; 0.01, 0.03, 0.1, 0.3, 1 mg/kg i.v. ten minutes prior to the test
  area under the curve of the ipGTT relative to the PBS-treated group: significantly reduced in a dose dependent manner
[2]
  ED50 (AUC of ipGTT fit to a hyperbola): 0.014 mg/kg
[2]; listed as GLP-1MMB
  ED50 (AUC of ipGTT fit to a hyperbola): 0.015 mg/kg
Wild type mice
  area under the curve (AUC) of the ipGTT: statistically significant reduction in the AUC
DIO mice
  time post injection with statistically significant reduction in the ipGTT AUC relative to the negative control: up to 6 days

“And” between values parts separate entries of the source, which are not always exact repeats. Equal values may be shown once.
